Measured values as given in the supplement of paper PMC11417369.
± gives the standard deviation of the averaged measurements. The list shows a part of the results.

Tested on: PfAP2-LT AP2 domain (GST-tagged)
Test: gcPBM binding intensity (ln(normalized median fluorescence intensity)); higher = stronger DNA binding
Outline: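 Binding intensity values are the highest Masliner-normalised natural-log median intensity among replicate spots of either probe orientation. The binding step lasted 1 h in 1× PBS with 1% milk, 0.2 mg/ml BSA, 0.5% salmon testes DNA and 0.03% Triton X-100, using GST-tagged P. falciparum DNA-binding domains expressed in E. coli on an Agilent 4 × 180k array of primer-extended double-stranded 36-bp intergenic genomic probes plus negative controls. Alexa488 anti-GST antibody and a 488 nm scan detected bound protein.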

Sequence | gcPBM binding intensity (ln)
TTTTTTTTTCCTTCTTGTACATATTATATATACATA [XGTACX_site5988] | 8.72 ± 0.4
TGGAACGTAATAAAATGTACATACGTTTTTCATATG [XGTACX_site6229] | 8.79 ± 0.4
TCTTATTTAATTAAACAAAAGAAAAAGAAAGAAAAG [CACACA_negctrl_site1569] | 8.33 ± 0.47
TTAGAAGGGATTAAAGTGCAAAATAGGATTAGAGTA | 8.82 ± 0.71
TACAAGTATAAATAAGCACACATGTGTATATGTACA [CACACA_site7911] | 9.25 ± 0.42
ATGTTATATTATAAAAGTACATTTTATTTTTATTTA [XGTACX_site4365] | 8.54 ± 0.5
ATTTCCTTTTTCTGTTGTACTCATAAAATAATATGT [XGTACX_site7234] | 8.9 ± 0.47
TTAATTTATAAAAACACACACAGGTAAAAAGGTGCA [CACACA_site1177] | 9.16 ± 0.42
GTTAAGTGTATATATACACACATATGTAATACATGA [CACACA_site3048] | 9.21 ± 0.32
TAATTAAAATTATATATTAGAAAAAACATATAAAAC [CACACA_negctrl_site190] | 8.54 ± 0.42
ATATGTAGAATAAAAAAAAAAAAAAAAAAAAAAAAT [CACACA_negctrl_site621] | 8.78 ± 0.62
AATATTGAAATAACGCGTACAAAAAAAAGTTATATT [XGTACX_site6559] | 9.08 ± 0.51
AAAAAAAGTGACTCCTTACACACTTTACATAATTTA [CACACA_site820] | 8.7 ± 0.42
TAAAAATATATGTATACACACATATATATATATATA [CACACA_site3951] | 9.63 ± 0.26
AATGAAATAATACAATGTACGTTAAAAAAAAATAAA [XGTACX_site7928] | 8.82 ± 0.53
TAATATCAAACCTATAGTACATAAGGTATAAAAAAG [XGTACX_site3533] | 8.86 ± 0.44
GTATTATTTTATGATGCATGTGTATTTCATATATGC [TGCATGCA_site660] | 9.01 ± 0.43
TAACAAAAAGCACTTAGTACATATATATATATATAT [XGTACX_site1099] | 9.88 ± 0.44
AATATAACTTTTTGCACACTTAATTTTTTTTTTTAA [CACACA_site3365] | 9.01 ± 0.47

Sequence | gcPBM binding intensity (ln)
TTTCTTTTTAAATATATACACACCGGGTGTACATAT [CACACA_site3345] | 9.09 ± 0.38
TATATTTATTATAACACACACATATTTATATTATAG [CACACA_site6628] | 9.02 ± 0.33
AGGTAATATACTAAATGTACAGAAAAACGAATTTTT [XGTACX_site2977] | 8.8 ± 0.5
ATATATCATGAACCTTGTACGTATATATATATATAT [XGTACX_site239] | 9.59 ± 0.028
ACTTCCTATATTTATGCATGCATTTTATTAAAAAAT [TGCATGCA_site747] | 9.03 ± 0.34
TATACAATATTTATAACACACATATTTATATAAACT [CACACA_site6932] | 8.79 ± 0.4
AGAACATTTTCTCAGTGTACTTATATATTTGACATA [XGTACX_site6541] | 8.72 ± 0.41
ACTAAACAATATGTATGTACATATTTTACATATAAT [XGTACX_site3318] | 8.88 ± 0.44
TACAGACAGAAACACACACACACGCATAAAAAAAAA [CACACA_site1514] | 9.91 ± 0.38
GATGGAATCTAATTTACATGCAGTGATATAATAAAT [TGCATGCA_site1031] | 8.73 ± 0.38
TAATAATAACCGTTATGTACACAATTTTGTGAACAT [XGTACX_site8053] | 8.74 ± 0.38
ATTTATTTATTTATATGTACATATATATATATATAT [XGTACX_site339] | 9.12 ± 0.12
TCAAGAATTTTAAAGAGTACATAAAACAATAATATA [XGTACX_site3923] | 8.56 ± 0.4
CAAAAATAACGAGTCAAACACACATATATATATATA [CACACA_site2038] | 9.86 ± 0.3
AAAGGGATAACACCAAAAAAAATAAAAATAAAAATA [GTGCAC_negctrl_site680] | 8.63 ± 0.73
CAACACTTTCAAAAATGTACGTACAAATGTATTTTA [XGTACX_site6713] | 8.73 ± 0.47
ACAAAATAAAGACACACACACAAACACAAAAAAATA [CACACA_site7568] | 10.1 ± 0.38
AGTTTCCATATGAGGTGTACATATATAATTTATTAT [XGTACX_site2369] | 8.93 ± 0.36
ATGCGTATACTAAGAACACACAAGTTACTTGGTGTT [CACACA_site1625] | 8.96 ± 0.35

Sequence | gcPBM binding intensity (ln)
ATTAATGATTTTTGTTGTACATTATTAATTTACATT [XGTACX_site544] | 8.88 ± 0.4
CATACATACATACATACACACATACATATGTATTTA [CACACA_site5384] | 9.31 ± 0.33
TATTTTATATTTCATTTGTTATTTTTCTTGGTTCTA [CACACA_negctrl_site33] | 8.73 ± 0.59
TACCATTATTTTAAGTGTACATACTAATTTATATAT [XGTACX_site6548] | 8.79 ± 0.43
AAAATATAATATATTGCACACAAAAAGTGAATTATT [CACACA_site8489] | 9.06 ± 0.35
TCTTTCTATTTATAATGTACTCAAAATTATTCTATA [XGTACX_site4867] | 8.51 ± 0.4
AAATTGTGTGAAATATATTAATATTATTATTATTAT [TGCATGCA_negctrl_site189] | 8.65 ± 0.52
CCTTGCATTTATTATACACACACAAAAAAATATATA [CACACA_site7964] | 9.05 ± 0.4
TTTTACCACTAAAAATGTACAAAAAAAAAAAAAAAA [XGTACX_site4226] | 8.37 ± 0.4
TTTGTAGATTTTGTAACACACACATATATATACATA [CACACA_site8757] | 9.12 ± 0.35
TATGCACCCAGACACACACACACAACTAAAAAATAA [CACACA_site2567] | 9.8 ± 0.35
TTGCAAATATATGGTTGTACTCAAAAAAAAAAAAAA [XGTACX_site6975] | 8.48 ± 0.43
CATGTCAAAATTATACGTACATATATAAGTTCCATT [XGTACX_site6331] | 8.86 ± 0.35
AAAAAAAAATAAAAAAGTACATTCATTTTATAAGAT [XGTACX_site3507] | 8.61 ± 0.49
ATCCTCTTTTTAAGTTGTACAGGGTCGAAAAAAAAA [XGTACX_site6852] | 8.37 ± 0.4
GATTATTATTATAAGGGTACAAATATTTAATAAAAA [XGTACX_site7144] | 8.59 ± 0.54
TTTTTTCAAATTATTCGATATGTAAAAAAATAAAAT [GTGCAC_negctrl_site241] | 8.12 ± 0.42
AAATATTTGTGTGGTTGTACTATAATGATAAAAATA [XGTACX_site7703] | 8.99 ± 0.47
